# Results from the BET-seq Pho4 binding data (Le et al. 2018).
# The list shows a part of the results. These are noisy estimates, calculated here from bound and input reads.
# Target: T1, Pho4 (S. cerevisiae) (UniProt P07270)
# T1 sequence: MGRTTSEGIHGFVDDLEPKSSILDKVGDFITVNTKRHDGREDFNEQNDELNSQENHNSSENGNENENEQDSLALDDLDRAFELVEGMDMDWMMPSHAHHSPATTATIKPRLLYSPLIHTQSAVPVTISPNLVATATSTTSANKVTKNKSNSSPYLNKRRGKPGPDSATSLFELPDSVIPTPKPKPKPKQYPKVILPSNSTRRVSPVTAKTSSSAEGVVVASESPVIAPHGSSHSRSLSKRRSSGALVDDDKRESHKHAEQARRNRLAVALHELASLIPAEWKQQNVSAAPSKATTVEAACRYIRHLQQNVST
# Experiment: relative binding free energy (BET-seq); higher = weaker binding
# Details: reference: library average
row,Sequence,relative binding free energy [kcal/mol]
1,CGGTGCACGTGGAGGA,-0.03
2,CTGGACACGTGGGTGA,-0.08
3,TTTGACACGTGTGGGC,0.14
4,ATACGCACGTGGGGGA,-0.26
5,GATATCACGTGAGGGA,0.29
6,GCTTGCACGTGTGTCT,0.11
7,AGGTACACGTGCAAGG,0.1
8,AGTACCACGTGTGTAT,-0.01
9,TTGCGCACGTGGGAGC,-0.14
10,AAGGTCACGTGGTTAT,0.08
11,ACGGTCACGTGTGCGG,0.09
12,CTCTGCACGTGGGGGA,-0.18
13,GTGGCCACGTGGGCAT,-0.23
14,TCTAGCACGTGTGTTG,-0.11
15,CAGAACACGTGGTGGG,-0.15
16,TGGAGCACGTGGAACG,0.1
17,GGCGTCACGTGTAGGA,-0.04
18,CTGATCACGTGATTGG,0.17
19,TTAGACACGTGTAAGG,0.02
20,TTGCGCACGTGCGTAT,-0.12
21,GTGGACACGTGGTCTT,0.04

row,Sequence,relative binding free energy [kcal/mol]
1,CGGTGCACGTGGGAAA,-0.06
2,ACATGCACGTGGGGCT,-0.19
3,TGAGTCACGTGTCTCG,0.18
4,AAAATCACGTGTGTAG,0.16
5,GGCGTCACGTGGTTGT,0.17
6,TAGCGCACGTGGGGGG,-0.24
7,ATTTTCACGTGGGCAT,0.17
8,AGTGTCACGTGCTGGA,0.06
9,TTGAGCACGTGGTGAG,-0.12
10,GAAGGCACGTGGTAGA,-0.16
11,TAGGACACGTGGGTAG,-0.18
12,TGCAGCACGTGAGATT,0.31
13,GTTGCCACGTGGTAGA,-0.07
14,ATGGGCACGTGATTCT,-0.04
15,AGAGGCACGTGGATCG,-0.06
16,GAAAGCACGTGTTGTG,-0.13
17,TGGCGCACGTGGACAG,-0.02
18,GGCCTCACGTGTTTTG,0.29
19,GTGGTCACGTGCAGGA,0.09
20,CGTTTCACGTGTTCTT,0.29
21,GGATTCACGTGTGGAA,0.31

row,Sequence,relative binding free energy [kcal/mol]
1,GTAGACACGTGGTTTG,-0.05
2,TCGTACACGTGTGTAT,0.11
3,TGGTTCACGTGTCTAT,0.21
4,AGATTCACGTGTAAAT,0.31
5,TTCATCACGTGATAGT,0.1
6,GGATTCACGTGAGTAG,0.3
7,AATATCACGTGTTAGT,0.06
8,TTGTGCACGTGGGGAC,-0.18
9,ATGTGCACGTGTGTTT,-0.07
10,AGGTGCACGTGTGGAA,0.12
11,TTTGACACGTGGGTCT,-0.07
12,AGTCTCACGTGAATGT,0.43
13,AGGGACACGTGGAGAG,0
14,GAGTGCACGTGAGTAT,0.07
15,TGACGCACGTGGGTAA,-0.22
16,GTGAGCACGTGATTGA,0.18
17,TCGATCACGTGTTTAA,0.33
18,GTAGTCACGTGAAGAG,0.28
19,GGTCACACGTGATGTG,0.15
20,TTTATCACGTGGAAGG,0.26
21,GTATGCACGTGGAATT,0.06
